Data: the supplement of paper PMC11417369
Some of the results follow.

Each sequence was assayed on PF3D7_0420300 AP2 domain 1 (GST-tagged) (assay: gcPBM binding intensity (ln(normalized median fluorescence intensity)); higher = stronger DNA binding).
In short: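 Probes on an Agilent 4 × 180k array were primer-extended, double-stranded and 36 bp long, taken from intergenic genomic regions, with negative controls added. GST-tagged P. falciparum DNA-binding domains from E. coli, about 25 μg on average, were applied to the array for 1 h in 1× PBS containing 1% milk, 0.2 mg/ml BSA, 0.5% salmon testes DNA and 0.03% Triton X-100. Binding intensity, obtained after Alexa488 anti-GST antibody detection and a 488 nm scan, is the highest Masliner-normalised natural-log median intensity across replicate spots of either probe orientation.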

In order of falling “gcPBM binding intensity (ln)” value:
1. TGGGAATAAAAACACACACACACACCGATATATATA [CACACA_site5875]  10.3
2. CACAGACACGGACACACACACACACCGATATATATA [CACACA_site4353]  10.3
3. TAAAAAGGAAGACACACACACACATATATAAATATA [CACACA_site7657]  10.2
4. AAAAAAAACGAACACACACACATTCAATATAAAACA [CACACA_site6170]  10.2
5. ATATATATAAAACACACACACACATGTTTTAAAACT [CACACA_site78]  10.2
6. TGTAAATATATATATACACACACACCGAAGCAATAG [CACACA_site8960]  10.1
7. TATTAATACAGACACACACACACACCCAATAAAATA [CACACA_site243]  10.1
8. CACAAAAAGAAACACACACACATATATATTTATTAT [CACACA_site3646]  10.1
9. AAAAAAAAAACATACACACACATATAGATTTATATG [CACACA_site6847]  9.99
10. AAGGCAAACAAACACACACACATATATACATATATA [CACACA_site2122]  9.98
11. TAGAACAAATAAAACACACACATATAAATATAGATG [CACACA_site7325]  9.95
12. AACAATTTATATAAAGCACACATGGGAAGGAAATAC [CACACA_site1712]  9.85
13. TTTTTTTTGTATTTTTCACACACACCGAAGTAAACA [CACACA_site8575]  9.85
14. TATAATAAAAAATGTACACACATAAGAAAATTTAAT [CACACA_site2901]  9.76
15. ATATAATCTGAGTGCACACAAATAAATAAACATACA [CACACA_site422]  9.76
16. TTCCTATAAAAAAACACACACATATAAATATATATA [CACACA_site2318]  9.74
17. CATACAGACATACATACACACATACATACAGACATA [CACACA_site6996]  9.73
18. TATGAACACCCAAATACACACACTCAAAAAAAAAAA [CACACA_site5466]  9.71
19. TATATATATATATACACACACACCGTCCGTGTTAAA [CACACA_site2979]  9.66
20. TATATTAGAAAGGATACACACATATATAAATATCTA [CACACA_site6411]  9.65
21. CTTATGTGCATACCTACACACTTACCTATATTTATA [CACACA_site7411]  9.6
22. TTCGTAATTTATATCACACACATATATCTATAATAA [CACACA_site7458]  9.59
23. AAATAAATGTTATGCATACACACTTTATACCTATTT [CACACA_site3779]  9.59
24. TACACAAAGTTACATACACACTAATATTTACACCAT [CACACA_site6602]  9.59
25. GATATTATGTGTTTGGTATTTTTTGATGTTGGTAGG [XGTACX_negctrl_site563]  9.56
26. AGAATATTTAAAAAAGGTACACAAAAACCAAAATAA [XGTACX_site8569]  9.56
27. ATTATATACATATATGCACACAAAAAAATATATATT [CACACA_site8508]  9.56
28. TTTTTCCTTATTAATACACACATTCACCTTTTAAAT [CACACA_site479]  9.53
29. TCTTTTATGTTTGTTTTTCCCTTTTTTTATGTTCCC [CACACA_negctrl_site1722]  9.5
30. ATATGTATGAAGTGTACACATATATTGTATTTTCTT [CACACA_site5503]  9.47
31. TAAAAGGATGCATATACACACATATAGATTTATATA [CACACA_site7336]  9.47
32. TTATTGCATATTTACACACGTACTAATTTAAACAAG [CACACA_site971]  9.45
33. GTATATCACACATTTGCATGTTGTCAATAGTTTATC [TGCATGCA_site134]  9.43
34. ACATAATAAAAAAAACGTACAAATAGGTTTTTCATA [XGTACX_site6645]  9.43
35. TCAGATCCATAGAAGGTGCAAATAACAAAAATACAA [GTGCAC_site9610]  9.43
36. ATCTGTACAGTTTTTGCACACATATAAATAAAAAAA [CACACA_site9198]  9.43
37. ATAAATTCTATGTATACACACATATAAAATATAGAT [CACACA_site7296]  9.42
38. ATATATATATATATATGTACATATATTTGTAATGTC [XGTACX_site8074]  9.42
39. TACAATTTAATATATACACACAAATAAATTATGCTT [CACACA_site856]  9.41
40. AAAAACTATTGTAGGACACACAAAATTCCAATTTTA [CACACA_site1701]  9.41
41. ATAAATATTAGCAGTTGTACAATAAATATATGTAAT [XGTACX_site2534]  9.4
42. TAAAGAAAAATATAAAGTACAAAAATAAAAAAAATA [XGTACX_site8226]  9.4
43. TAATATGCTCATGTAACACACATTTGCATATTTTTC [CACACA_site1357]  9.39
44. GACTATTTTAATATTTTACACACCATGTAAAATATA [CACACA_site9050]  9.39
45. TATATATATATTTATACACACATTAGTGTATACATG [CACACA_site2950]  9.39
46. AAGTAATTTATGCATACACACATATATAAATATGTA [CACACA_site7813]  9.39
47. GTGCAAAATATTTTTACACACAAATTCTTACAACAG [CACACA_site7556]  9.38
48. TCAAAGTAAAACAGGACATGCACAGAACATCCTGCC [TGCATGCA_site2]  9.38
49. AATATATAAATATTGTGTACTTATTTTTTTATATGT [XGTACX_site4377]  9.37
50. TTAAAAATATTATGTACACACATTTGAGATATTTGT [CACACA_site6953]  9.36
51. GTATTTATGTGTTTGGTGCAAGGGAGAATTTTTTTT  9.36
52. TAAATACTTATATGTACACACATATAGATATATATT [CACACA_site2553]  9.33
53. ATATATGACAAATGTAGTACAAATTATTGTATCATA [XGTACX_site3675]  9.31
54. TTATACAGGACAATAGTGCACATAAATATATGTATA  9.3
55. TGAAATAAAATTTATACACACTTGCTAAATGATCAT [CACACA_site4265]  9.28
56. ATATATTAAAACCTAGTGCATTTGTACATATTTCAA  9.22
57. AGTTGCATACATTGAAGTACAGAACATTTATATATA [XGTACX_site240]  9.22
58. AACAATAAATTATTATGTACACATATATTATATATA [XGTACX_site4629]  9.21
59. GTAAGCACACATAGTTGTACATTAATAAAAATAAAT [XGTACX_site5876]  9.2
60. TCTTTCTAAAGATGTAGTACAAAATAAATATAATAT [XGTACX_site6564]  9.19
61. ATATAAATAAATGTATGTACATATATTTATATGCAT [XGTACX_site4185]  9.19
62. TATTTACAAATAAAAAGTACATAAACTAATATCTTT [XGTACX_site2181]  9.19
63. ATATATATTAGGTATTGTACTTATATGCATATAAGT [XGTACX_site2700]  9.18
64. TTAGATATAAAAGCATGTACTTGTATAAAATATATA [XGTACX_site8272]  9.16
65. GAAAAATTGAATTTGGGTACATATAAATATTATATT [XGTACX_site2363]  9.16
66. AAAATGTTTTTATCCAGTACATAAATATATATATAT [XGTACX_site7398]  9.15
67. TTACGATTTAAAATGGGTACATATATATGAAAAAAA [XGTACX_site545]  9.14
68. TTCCCTATATAGAGCATGCACTATATTCAAATGATG  9.13
69. ATACAAATTGTTTAAAGTACAAATTACACCTCTTAA [XGTACX_site6888]  9.12
70. TTTATTATGTAAGCATGTACATGATGTATATATTTA [XGTACX_site5021]  9.12
71. TATCATTAATTTACATGTACATAAATGAATGTTTAT [XGTACX_site5608]  9.11
72. ATAAATTCATATATGAGTACTAAAAATATCTTTTTC [XGTACX_site5541]  9.09
73. AATGAATGAATTATTTTGCGCTTATTATAGGACGAA [XGTACX_negctrl_site218]  9.08
74. CAATGGTCATTTAGTTGTACTTAATTTTAAATCAAA [XGTACX_site4075]  9.05
75. GCAGTCAAAAAGGAAAATATAAAAAAAGTATATGTG [GTGCAC_negctrl_site95]  9.05
76. ATTTTTTAAAATATTTGTACATATATAATGCATATA [XGTACX_site7026]  9.03
77. TTGTTTGTAAACAGATGTACATATAAAAATATATAT [XGTACX_site3370]  9.03
78. TTTATACAAACAACTTTATATTAATGTTTAACGGAG [GTGCAC_negctrl_site396]  9.02
79. TTTTTTTTTTTTTAAACATGCATATTAATATTATAT [TGCATGCA_site820]  9
80. ATATCTATGTTTATCTCGAATAACTTAAAAAATTAT [CACACA_negctrl_site1131]  9
81. AGGTTAAAACATATATATATATATATATATATATAT [XGTACX_negctrl_site333]  9
82. TTATCAAATGAGTGTTGTACGTCTTTTGAAATACCA [XGTACX_site8804]  8.98
83. TAATTTTTCTTATATAGTACACAAAAAGAAAATTAC [XGTACX_site6393]  8.94
84. TTTTTTGTTATTAAAAGTACATTATATGCTAGTTAA [XGTACX_site8747]  8.84
85. AAAGGCTATCTTATATACTCCTAAAACGCGAACGTA [CACACA_negctrl_site396]  8.83
86. TTAAATTCGTCATTTTAAAATAATACAAAAGTTCAA [CACACA_negctrl_site19]  8.83
87. TTTTTTTATTATTAAAGTACTAAAAAATGAAAACTG [XGTACX_site6758]  8.82
88. TTATCACACCTTTTTTGTACGAAATAAAAAAAAAAA [XGTACX_site5564]  8.8
89. ATTTATAAAATATAATTACATTTTTAAATAATAAAA [GTGCAC_negctrl_site43]  8.8
